73 sequences from PMC10726135 can be followed below.

This is one part of the list. At the low end of the ranking, values are background and their order means little. The protein was read in a cell extract, so binding may be indirect.

The assay deals with T1, HNF4alpha2 (COS-7 nuclear extract) (UniProt P41235).
T1 sequence: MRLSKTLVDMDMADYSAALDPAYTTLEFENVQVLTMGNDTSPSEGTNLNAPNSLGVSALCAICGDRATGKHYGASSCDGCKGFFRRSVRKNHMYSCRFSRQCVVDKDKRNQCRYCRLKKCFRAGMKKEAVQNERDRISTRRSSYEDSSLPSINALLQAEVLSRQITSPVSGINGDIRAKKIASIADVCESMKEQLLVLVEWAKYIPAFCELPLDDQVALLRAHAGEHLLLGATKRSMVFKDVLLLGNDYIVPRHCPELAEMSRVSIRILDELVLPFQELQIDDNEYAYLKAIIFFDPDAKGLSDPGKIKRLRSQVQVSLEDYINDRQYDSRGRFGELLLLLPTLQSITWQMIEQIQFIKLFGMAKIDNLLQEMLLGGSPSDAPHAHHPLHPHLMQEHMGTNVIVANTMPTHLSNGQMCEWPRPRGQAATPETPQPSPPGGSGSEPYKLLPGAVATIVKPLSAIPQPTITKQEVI
The assay can be described thus: protein-binding microarray. Particulars: COS-7 nuclear extract on double-stranded Agilent 4x180k PBM; binding buffer, salt, pH and temperature not given; high values mean tight binding; double strand, one strand shown; sequences stand for … in …GCCTAGGGAGATTAGAGTATCGGTCGA
ACCGGGATTTTGTTGGGGAACTTTGCCCGG: the binding signal (log2 normalized intensity) amounted to 4.45.

TGGCCAATCCCAGGGTCAGAGGTCGCGAGG: the binding signal (log2 normalized intensity) turned out to be 3.96.

Turning to CAAACAATCCTCCCACCTCAGCATCCCAAG, the binding signal (log2 normalized intensity) stood at 1.05.

With ATTAAAAGATAAAACATTGTACCTTCTACC, the binding signal (log2 normalized intensity) was 0.398. The value for GTCAGTGTCCAGCACACCTTTTTTTCATGC was -0.28; that for GGCGTCACCAACCAGCCCTCGAGTGAGGGG was 2.36. Regarding CCAGGTCTCCTCCACAGAGCACAGGATCCA, the binding signal (log2 normalized intensity) was -1. The result for TGGGTTCAAAGGTCAGAAAAAGCTGACGCC reads 6.84; that for CTGCACCATTCTTGTCCTTTCGGTGTGTGC, 2.1; that for CCTCAGTCCATCCTGTCTCACCAGACCAAG, -1.18. The result for ACTTTGGAACTCAGTTAATGTACAGAGTAT reads 0.375; that for CCTGTAGCTTCCGAAAGTATTTTTCTAGTC, 0.969. The result for ATCTCACTCTTTGTTATTTATTGGCCAGTA reads 1.9; that for ACTAGGCAGCTTGGGAGCAATTTAGCAGCA, -1.07; that for CTCCCTAGAAGAGTGAACCTAGTGGCTGTG, -0.774. In the case of GTGTGAATCTCCAACAAGGCAGGAGATTCC, the binding signal (log2 normalized intensity) was -1.08. The result for GCAGGAAGGAGCCTGCTTTGCTGAGGAACT reads -1.17; that for GAGACACAAGGAAAAATGACCATCTCGTCA, -1.18; that for GGGGATTGTGTAACATCTAAGATTGGCCCT, 1.3.

In the case of AGGTTGGCTAAAGATAACCTAGAAAGGAGA, the binding signal (log2 normalized intensity) is -1.18. In the case of TCTGCATACCAGGTAAGTGACATGCTTGCT, the binding signal (log2 normalized intensity) was -1.13.

On to GGAAAGGCATACGTGCTTAATCCTGGTGCA, for which the binding signal (log2 normalized intensity) was -0.117. The value for GCCATGAGTTGGGGACAAAGTTCAAGGTCC was 5.61; that for GGTCCAGAGTTCACTGCAGGCTGGGGGCAG was 1.5; that for GTAGGGCAGAGGCCAGTTTGATCACAAGAC was -1.1. In the case of CACTCACAGGACTGCTGTGAGGATTGATTA, the binding signal (log2 normalized intensity) was -1.06. On to CCTGAAAACTGGAGGCCGCGACAAGCGTCG, for which the binding signal (log2 normalized intensity) is -1.15. Regarding GGCTGATAGGCAGAAGGGACTAGCCTTATC, the binding signal (log2 normalized intensity) was -1.18. As to AGGAGGAGGTTCCTGGAACTCTGACCTTTG, the binding signal (log2 normalized intensity) turned out to be 5.97. The value for TTCTCTGGCAAATATCAGCATGGTATGTGG was 1.67; that for TAAACTTTTGATTGCTTAGGCTCTTGTTAT was -0.703; that for TGTGTTACGTCTGGTTTCTTATCTTTCTCA was 1.47. For the sequence CTTGAGGCTCCGATAAACCCAGGCAATGAC, the binding signal (log2 normalized intensity) is -0.813. The value for GGACTGGAAGGGAGAGATAAGAAAAACTGA was -1.2; that for CCGAGGTCTGATAAGCACCCTGCTCCAGCC was -1.21. The value for GCTGTCACCTTTACCCCCACTCTCCGCTGG was 3.67. As for TTTGTTTGTGTAAGTGTGGGTTTAAGTAAG, the binding signal (log2 normalized intensity) was determined as 2.17.

Consider TGAGGGTTAAAGGAGATAATGGGTGTAAGA, for which the binding signal (log2 normalized intensity) was 1.19. The value for GCATCTGAGCAGATGTAAACATCATTCACG was -1.17.

For the sequence CTGCTTTCAGAGATGATAAGCCCTGAGTAG, the binding signal (log2 normalized intensity) is -1.15.

For the sequence ACCCTGTGATGACCCCATACTTCAGCAATT, the binding signal (log2 normalized intensity) was 2. The value for GCAGGGTCATAGCTTTATCTCTCCCCCACC was 4.18; that for CGGCTGTCAAATCACTGAAGCGACCCCTCG was 2.78; that for GCCGGGAGCAGGGAGCGAGACGCTGAGCTT was -1.23. For GATATGCGGCTGCAAATTCTGCATTTTTCT, the binding signal (log2 normalized intensity) is -1.06. Turning to GTTATCTATTTGCATTCCATCAGTAGTATT, the binding signal (log2 normalized intensity) is 1.63. The value for TTCCTCTGGCATCTGGTCAGGGGTCAAGAA was 3.81; that for TGTAAACCTAGGTAGTGGACTCTAAGGCAA was 1.14; that for TCCCCCTGCTGGACACCGAGGTCCTGGGGC was 2.68. The result for GGACTCTGGAACCATCAGGATTCCAGAGGA reads 1.86; that for CTGCATTCCAGCCTGGGGCAATAGAGTAAG, -0.717; that for TTATTGAGCACTTTTGGTATGCAAGGCATG, 1.41. The value for AGAACAGAATCCAGTCTGGTTAGTTTAAGC was -0.975; that for CTCCTTGGAAGTCGCCGTGAGGTTATTTGC was 0.962.

For the sequence TCAGAAGGAAAGTCTCCCTCCCTTTGATCC, the binding signal (log2 normalized intensity) is 1.88. The value for TGATCAAGAGGCTCTTCAATGCATTCCTGA was -1.09; that for GACAGGATATTTTGAGGGCTCAAAGGTTAC was 5.37; that for TCCGAAATAAACTGAGGGGTGGGGACCAGT was -0.988. As to TTCTTTAAGCTATGTGGTGGAATGGAAAGA, the binding signal (log2 normalized intensity) came out at 1.04. The result for CTGATCCCAGCCCCACGGCTGAGCGGCCTT reads 0.219; that for AGGCGCTGTGAAGCACATCCTGTTCTAGCT, -1.17. The result for TGGTAGTTGCTGAAGGGCAGGGTTGGCTGT reads 1.06; that for ACTCATTTCACATTGGTGCCCTTTGCCTTT, 3.97. With TGGTTAGGTATTTTAAGTCACCAGATGAGA, the binding signal (log2 normalized intensity) was 0.217. The value for ACACAAACTCTGGAGTTTGCCCTTCACAAA was 3.5. The result for AATCTGTGACTGAGCAGAGATTTGACCTAA reads 2.68. The result for GGACAAACTGAGGAGGACATACTCCTACCA reads -1.16; that for AAGGGACAGGGGCCCAAGATAAAGGGACAG, -1.18; that for AGAAGAAAGGGGCTAGGGCAAAGATCAAAC, 2.39.

For the sequence AAGGACAAAGGTCATGTTTTCAAACAATGA, the binding signal (log2 normalized intensity) came out at 5.44.

Regarding CTGTGTCAGCAGAAGGCCCCAGGTGAACCA, the binding signal (log2 normalized intensity) came out at 0.474. Take TTACTCTTAGAGATAATGGGGGAGCCACTG: the binding signal (log2 normalized intensity) was -1.18. For the sequence CTAACCAGCTCTATCAGTCTGGGTCCAGTC, the binding signal (log2 normalized intensity) was determined as 2.23.
